# This is one part of the list. One pool of 16,384 single-stranded DNAs met each Rep nickase domain in vitro for 1 h at 37 °C with 3 µM enzyme; only the middle of the 90-letter strands is printed. A value is the log2 ratio of uncut reads to the pool without enzyme; more negative means more cut, near 0 not cut, and no call is made. The scaling is to total reads; values above 0 arise when much of the pool is cut.
# System: T1, Rep nickase domain of tomato golden mosaic virus
# T1 sequence (protein, residues 1-124, tag omitted): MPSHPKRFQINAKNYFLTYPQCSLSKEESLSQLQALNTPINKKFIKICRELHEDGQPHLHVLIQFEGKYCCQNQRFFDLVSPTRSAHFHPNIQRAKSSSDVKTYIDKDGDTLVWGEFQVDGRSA
# Test: uncleaved DNA left, log2 of reads against the no-enzyme library (log2 ratio); higher = less cleavage (more negative = more Rep cleavage of the k-mer); sequences stand for … in CTCGTCCG…ACCGGAGA
# Description: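 A pool of 90-nt single-stranded DNAs with seven random bases just before the constant AC of the nick site (name = the seven bases) was cut by 3 µM recombinant His6-SUMO-tagged Rep nickase domain (300 nM DNA, 50 mM HEPES pH 8.0, 50 mM NaCl, 1 mM MnCl2, 1 h, 37 °C, three replicates). Uncut DNA was amplified and sequenced.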
row,Sequence,uncleaved DNA left (log2)
1,AATCGCA,0.0196
2,TAGAACG,-0.0616
3,CTACGTG,-0.0999
4,AGGAGGT,0.131
5,CTTCACC,-0.133
6,GCGTATA,0.187
7,TCCAAGG,0.194
8,TCATAAA,0.0353
9,GTCCAAG,0.171
10,CGGAAGG,0.044
11,CAGATAC,0.0495
12,TACAGAA,-0.0968
13,GGTCTAC,0.126
14,GAGGTCG,0.0849
15,CCGAGGA,0.0412
16,GCTAGAG,0.0708
17,CTCAATC,-0.149
18,GGAACGT,0.0391
19,AGTCGAC,0.126
20,ATCAAGG,0.0173

row,Sequence,uncleaved DNA left (log2)
1,GAGAAGT,0.0752
2,GGGGACA,0.0385
3,CACGTAA,0.0993
4,GTCCGGC,0.112
5,GCAGAAC,-0.0747
6,GGACAGG,0.224
7,CAAATCA,0.0418
8,GGGAAAC,0.033
9,GATCTCC,0.0208
10,CACACGT,-0.0301
11,GCGCCGT,-0.108
12,TCGCCGT,-0.166
13,GGGATTA,0.182
14,GTTCTTC,-0.0184
15,TTAGATT,-0.209
16,GCAGTGA,0.148
17,TAATGAG,0.0434
18,ACTCTGT,0.0715
19,ATTTGAG,-0.0368
20,GTAAGAT,0.105

# Source: the supplement of paper PMC7826260
